Results on 22 molecules are retold here after PMC12136788.

The other results are listed elsewhere or left out.

The chains are these.
T1: UNK ZnF1-3 (human, UniProt Q9C0B0 31-174)
T1 sequence: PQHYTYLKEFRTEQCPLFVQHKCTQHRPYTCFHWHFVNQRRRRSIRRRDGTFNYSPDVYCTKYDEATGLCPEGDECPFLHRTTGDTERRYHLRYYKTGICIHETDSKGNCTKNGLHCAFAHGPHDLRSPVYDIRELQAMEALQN

B1: chr1:8037743:8037744:+_ENSG00000116288_ENST00000493373|perfect_dup|motif|central (ssRNA)
RNA: GGGAGUUCUACAGUCCGACGAUCGCCAUUCAUCAUUUUGUCCUUAGCCAGUGGGUGUGUUGUGACCUUGCAUCCAAAACCGGCUUCGUGAGCCAACAGAGCCGUAGGACCUGCACAGAUGGCAGCUAUGAGGCCCUUCCUGCUCAACAGAGGAUUGAGCAUCA
B2: chr3:7442581:7442582:+_ENSMUSG00000027499_ENSMUST00000028999|mus_mus|motif|central (ssRNA)
RNA: GGGAGUUCUACAGUCCGACGAUCUGUACUGUACGAUACAAAACGGCGUAAGUAACAGCACUCACACACAGGGACAUAAUGCGGACUGUGCUCUCUGGAUGGUUCUUUUUGUGAGUCAAUACUCCAGCCAGAGAUACUGAAACUCAACAGAGGAUUGAGCAUCA
B3: chr19:55172049:55172050:-_ENSMUSG00000024978_ENSMUST00000061856|mus_hu|FALSE|FALSE (ssRNA)
RNA: GGGAGUUCUACAGUCCGACGAUCUGUGUGCUUACAUCGACCAACACUGUAUUCUGAUGAAUGUGGCAGAUAAGAAACAUCUAUUGUACCAAGGGUCAGUGCAGAUUCAUCCAUGUCACAAAGUGUAAUUCCCAAAUCAUGUGCCAACAGAGGAUUGAGCAUCA
B4: chr2:175094126:175094127:-_ENSG00000138430_ENST00000344357|hu_hu|motif|central (ssRNA)
RNA: GGGAGUUCUACAGUCCGACGAUCUCUGCUCUCAUUAGGAUCAAUAGUGCAGAACGGGAAGUUUUCUGCUGAAGCCUGACGGUUGGUUAACACAUUGAAGAAAGUAGAUUUCCGUGCUCGGCCUGGGCGAUGACACGGGGUCCCCAACAGAGGAUUGAGCAUCA
B5: chr14:89307221:89307222:+_ENSG00000165533_ENST00000346301|hu_hu|FALSE|FALSE (ssRNA)
RNA: GGGAGUUCUACAGUCCGACGAUCUCCUGUCUGAUUAGUUCCAGGGAGUUUCAAAGACGUUCCAGGGCGUGGAACUUGAGCUAUAGCAUUUUCAUCCAGCAUCAUUUCUGCAAUUCCUUCCUGAUCUACAUCAAUUUCAUCUAUCAACAGAGGAUUGAGCAUCA
B6: chr5:137354059:137354060:-_ENSG00000031003_ENST00000033079|hu_hu|motif|central (ssRNA)
RNA: GGGAGUUCUACAGUCCGACGAUCGUGAAUAUGUAAACUGCCAGGGAUAACAGGUUCAGGAAGUUCUUGAAGAAAAAAUCGGAGAAGGCUAAUAGCUGAGGGAACAUCUGCUUCCUUAACCAAAUCCACCUCUUCUCCGCUGUCCAACAGAGGAUUGAGCAUCA
B7: chr1:163117052:163117053:-_ENSG00000143248_ENST00000313961|hu_hu|FALSE|FALSE (ssRNA)
RNA: GGGAGUUCUACAGUCCGACGAUCAACAUCCCCUGGGAUUUUUCCCAUGUGGGUAUCACUGAGCAAAGCUGCUGUGGGAAGAUAUGUAGAUUAAUGGGAAAUGCAGGGUUAUUAUGGAGGAAAUAACUCACAGGAUGAUUUCAUCAACAGAGGAUUGAGCAUCA
B8: 52896138_52896258_2370_3pUTR_ENSG00000196628_ENST00000354452|human|control|control (ssRNA)
RNA: GGGAGUUCUACAGUCCGACGAUCGGUCUGGGGCUUGUCACUCUUGAGGUGGAGCUGCACCAUGCGGCCGAGCUCUUUGAAAGCCUCGUUGAUGUCACGGACCCGCAGACGCUCUCGGGCAUUGUUGGCCAUCCUCCGCUCCUUCAACAGAGGAUUGAGCAUCA
B9: chr11:100882373:100882374:+_ENSMUSG00000019302_ENSMUST00000044721|mus_mus|mus_mus_mus_hu_True|68_108 (ssRNA)
RNA: GGGAGUUCUACAGUCCGACGAUCUUCCUGGUUAGUGUUGAUUUCCUUCAGUUCAUUUUCAAUCUUCUCGAAAUUGGCCUCUAAGUCAAUCAUGUCCCGGGGGAAGGGAACCUCUGGGUUUUCACCGGUGUCCAUAAUCGGAAUCAACAGAGGAUUGAGCAUCA
B10: chr16:14738297:14738298:+_ENSG00000103429_ENST00000261658|hu_hu|motif|central (ssRNA)
RNA: GGGAGUUCUACAGUCCGACGAUCGUUCAAGGUGGUGGGGUUAACCAGGAUGUCGUAGCAGCAGUGGCAAGAAAAUUCACGGACAGAAAUCUGAGGGCCGGUGCUUUUGAGAGGUUCAUCUCUCUCAAGGUCCAUUGUGUUCACCAACAGAGGAUUGAGCAUCA
B11: 33186989_33187109_4414_3pUTR_ENSG00000170275_ENST00000320954|human|control|control (ssRNA)
RNA: GGGAGUUCUACAGUCCGACGAUCGCACACUAUUUACAGACUCAGGAAUCCCGGAGCAGGGCGUCCACUCGCUGGGUCCCCCACUACUUUCUAGUCCUGUCUCAUCACCCUCUUCCCCACUGAGUUCAAAAGGAAGUUUCUCUGCAACAGAGGAUUGAGCAUCA
B12: chr7:135612270:135612271:-_ENSG00000105887_ENST00000393085|hu_mus|hu_hu_hu_mus_False|48_78 (ssRNA)
RNA: GGGAGUUCUACAGUCCGACGAUCGUUUUUUUCUGAGAUGUUAAAUAGUACUUCAGUAACAAAACUUACUUAACCUUUUAUUAAUGCAUGUAGUACCAAAAGCAGACAUUUUAGCUUCAUUUAUUCAAAAAUAUUAACAUUAAGCAACAGAGGAUUGAGCAUCA
B13: chr4:184596322:184596323:+_ENSG00000168538_ENST00000334690|hu_hu|motif|central (ssRNA)
RNA: GGGAGUUCUACAGUCCGACGAUCCGCAUUUUGUGUAUCUUGUUUCAACUCACUGAAGAAAGCUAUUUUGAACUGAUGCCGGACAAAUAAAAGCUGGUGUGUUGUUUUAUUCAAAAAUUCUUUAUGAGAUUUCACUCUUCUGAUCAACAGAGGAUUGAGCAUCA
B14: chr11:43534790:43534791:+_ENSMUSG00000044950_ENSMUST00000129229|mus_mus|motif|central (ssRNA)
RNA: GGGAGUUCUACAGUCCGACGAUCUCUGAUUUUCUCAUGUGUUCUCCAUUCAUUAAACAAGAAAAAUUAAGGGGUUUCAUACGGUGUAUUUAGCAAAGACAAGGAAAUCUGAAAUCUCUGUUAAGAAUUCAUGUUCCAUGCACCCAACAGAGGAUUGAGCAUCA
B15: chr22:28376736:28376737:-_ENSG00000100154_ENST00000397906|hu_hu|motif|central (ssRNA)
RNA: GGGAGUUCUACAGUCCGACGAUCAUUUUAGAAUUACCUAAAAGAUACUUACUUAUCUAAAUUCUCCAACUAAACUCAGUACGGAUACGACUUUCAGCAUUUCCUUUCUUUAUAAAAUAAAUUAAUGGUUACCCCUAACUAGAUCAACAGAGGAUUGAGCAUCA
B16: chr14:89327608:89327609:+_ENSG00000165533_ENST00000346301|hu_mus|FALSE|FALSE (ssRNA)
RNA: GGGAGUUCUACAGUCCGACGAUCUUCCUCAUAGAUCCUGGCAAUUCCACAAAGCAGGGUCACCUCUCCUGGAAACUUAUCUAAGCCUUGUUUAAAUAGAUUUAAAGCAGUCACAGGUUGAUCCAAUAUGAUAUAAACUUUUGCCAACAGAGGAUUGAGCAUCA
B17: 39991170_39991290_1122_CDS_ENSG00000065883_ENST00000340829|human|control|control (ssRNA)
RNA: GGGAGUUCUACAGUCCGACGAUCGGGGCUGCUGCCACCUCCUGCCGGGCUGGGGGACUUGCGGCUCCUCAGGCUCUGAGAGGCCCUGUGGGACACCGGGCUGUCGUCCCGGCCUCCCAGUGGGCUGAGGGACCGCCGCCGCCUCAACAGAGGAUUGAGCAUCA
B18: chr17:56739783:56739784:+_ENSMUSG00000071054_ENSMUST00000095224|mus_hu|motif|central (ssRNA)
RNA: GGGAGUUCUACAGUCCGACGAUCAUAUUUGCUGAAAAGAUUCUUCAAAUCUGUAGCUCUGGUUGUAGAAGAGAGUCCACGGACCCAGAAAUUUCUACCACAACUGCUGCGACCCUUUUCCUCUUUGGAAAGCCUUUUUGUAUCCAACAGAGGAUUGAGCAUCA
B19: 436118_440354_2135_3pUTR_ENSG00000141252_ENST00000437048|human|control|control (ssRNA)
RNA: GGGAGUUCUACAGUCCGACGAUCAAGAGGUGGGUGAUGAAUUUGGGAAUGAAGGAGUUUGCAAAUUUAACGCAGAACUGAGUGAAGUACUUGCGUGUGGAAGCCAGGUUGUCACGGAUGAUGGGGACGUUCUGCUUGAUGUGCCAACAGAGGAUUGAGCAUCA
B20: chr8:71331417:71331418:+_ENSMUSG00000031864_ENSMUST00000110241|mus_hu|motif|central (ssRNA)
RNA: GGGAGUUCUACAGUCCGACGAUCGACCAGCAUGGUGGAAUACACCACUUGGUUUUUAUAUUUUGCAUGUGCUUCACGGUCAAAGUUGUUCAUGUAUCUGCAGAGAUCCUUCAUUCUAUGCAAAAUAUCUCCAUAGCUUCGUCUCAACAGAGGAUUGAGCAUCA
B21: chr12:48362563:48362564:+_ENSG00000134291_ENST00000256686|hu_hu|hu_hu_hu_mus_False|28_38 (ssRNA)
RNA: GGGAGUUCUACAGUCCGACGAUCUCCGUCAAGCCCUUCGAUAGACCCUUGCGGGGGAAACUGUAAUCACUUUGUAUGGGGAAGGAAAAGAAACGCCAACACACUUUUUUCUUUCUUGGGUGGGGUGAGGCGGGAGGGGGAGGUCAACAGAGGAUUGAGCAUCA
B22: chr17:64801638:64801639:+_ENSG00000154229_ENST00000413366|hu_mus|hu_hu_hu_mus_False|18_28 (ssRNA)
RNA: GGGAGUUCUACAGUCCGACGAUCUAUAUAUAUAUAUACAUAUGUACACAUAUAUAGUAAAACCCUAGUUAAACGUGUAAAGUAGCCAUUCAUUUUUAAAAUUACAUCUACAUUUAAAAAGUAAUCUAUCUGAUAGAGUGCCAGCAACAGAGGAUUGAGCAUCA

The test has as its target T1, UNK ZnF1-3. Description: nsRBNS (natural sequence RNA bind-n-seq); RBNS binding buffer (assumed for nsRBNS): 25 mM Tris pH 7.5, 150 mM KCl, 3 mM MgCl2, 0.01% Triton X-100, 500 ug/ml BSA, 20 U/ml SUPERase-In, 4 C; UNK is unkempt and MSI1 is Musashi-1; names of the RNAs are library labels; protein concentration not given here; high values mean tight binding.
As to B1, the binding signal was found to be 0.883 enrichment R.

In the case of B2, the binding signal was 0.862 enrichment R.

B3 had a binding signal of 2.3 enrichment R.

Regarding B4, the binding signal is 0.968 enrichment R.

Molecule B5 showed a binding signal of 0.892 enrichment R.

B6: the binding signal worked out at 0.879 enrichment R.

Molecule B7 gave a binding signal of 1.52 enrichment R.

In turn, B8 showed a binding signal of 0.552 enrichment R.

B9 had a binding signal of 0.543 enrichment R.

B10 displayed a binding signal of 1.04 enrichment R.

B11 showed a binding signal of 1.31 enrichment R.

For B12, the binding signal was 1.34 enrichment R.

For the molecule B13, the binding signal worked out at 1.09 enrichment R.

The molecule B14 showed a binding signal of 0.978 enrichment R.

With B15, the binding signal was 1.07 enrichment R.

B16 registered a binding signal of 1.29 enrichment R.

Regarding B17, the binding signal came out at 0.488 enrichment R.

B18: the binding signal was 0.655 enrichment R.

On to B19, for which the binding signal amounted to 1.58 enrichment R.

The molecule B20 had a binding signal of 0.681 enrichment R.

B21 returned a binding signal of 1.73 enrichment R.

B22 had a binding signal of 1.14 enrichment R.
